The other results are listed elsewhere or left out. Sequences were assembled here from the parent chain. Values near 0.05 are background.
B1: TEV protease; numbered along this chain (parent)
chain: MGESLFKGPRDYNPISSSICHLTNESDGHTTSLYGIGFGPFIITNKHLFRRNNGTLVVQSLHGVFKVKDTTTLQQHLVDGRDMIIIRMPKDFPPFPQKLKFREPQREERICLVTTNFQTKSMSSMVSDTSCTFPSGDGIFWKHWIQTKDGQCGSPLVSTRDGFIVGIHSASNFTNTNNYFTSVPKNFMELLTNQEAQQWVSGWRLNADSVLWGGHKVFMVKPEEPFQPVKEATQL

Variants of: B1
Assay: raw area under fraction-flipped curve 0-4 h after induction (AUC4h, not background-subtracted), DNA-recorder readout of cleavage of the substrate (dimensionless); higher = more cleavage of the substrate by the protease variant
Conditions: temperature: 34 °C; time window: 0-4 h after rhamnose induction
Procedure: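 In vivo DNA recorder in E. coli TOP10(DE3) ΔrhaA at 34 °C. Each TEVp single-site mutant (parent TEVp 0) is paired with a single-site variant of the 7-mer TEVs (canonical ENLYFQ|S). The substrate sits between flexible linkers in a Bxb1-sfGFP-TEVs-SsrA fusion, so cleavage stabilises Bxb1 and speeds flipping of a recombination array, read by NGS. The value is the raw area under the fraction-flipped curve over 0-4 h after rhamnose induction (AUC4h), with ≥20 reads per time point. It is not background-subtracted; inactive controls average about 0.047.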
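Note: Bxb1 expression induced with 0.2% (w/v) L-rhamnose at OD600 near 0.5, cultures sampled hourly, flipped fraction per protease–substrate barcode pair counted by paired-end Illumina sequencing.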

MGESLFKGPRDYNPISSSICHLTNESDGHTTSLYGIGFGPFIITNKHLFRRNNGTLVVQSLHGVFKVKDTTTLQQHLVDGRDMIIIRMPKDFPPFPQYLKFREPQREERICLVTTNFQTKSMSSMVSDTSCTFPSGDGIFWKHWIQTKDGQCGSPLVSTRDGFIVGIHSASNFTNTNNYFTSVPKNFMELLTNQEAQQWVSGWRLNADSVLWGGHKVFMVKPEEPFQPVKEATQL [K98Y]
area with substrate ENLYFQA: 0.121 | area with substrate ENLYFQC: 0.147 | area with substrate ENLYFQD: 0.106 | area with substrate ENLYFQF: 0.0875 | area with substrate ENLYFQG: 0.106 | area with substrate ENLYFQH: 0.0795 | area with substrate ENLYFQI: 0.0619 | area with substrate ENLYFQK: 0.0583 | area with substrate ENLYFQL: 0.0672 | area with substrate ENLYFQM: 0.114 | area with substrate ENLYFQN: 0.0893 | area with substrate ENLYFQQ: 0.0721 | area with substrate ENLYFQR: 0.0542 | area with substrate ENLYFQS: 0.103 | area with substrate ENLYFQT: 0.0595 | area with substrate ENLYFQW: 0.0607

MGESLFKGPRDYNPISSSICHLTNESDGHTTSLYGIGFGPFIITNKHLFRRNNGTLVVQSLHGVFKVKDTTTLQQHLVDGRDMIIIRMPKDFPPFPQKLKFREPQREERICLVTTNFQTKSMSSMVSDTSCTFPSGDGIFWKHWIQTKDGQCGSPLVSTRDGFIVGIHSASNFTNTNNYFTQVPKNFMELLTNQEAQQWVSGWRLNADSVLWGGHKVFMVKPEEPFQPVKEATQL [S182Q]
area with substrate ENLYFQA: 0.0782 | area with substrate ENLYFQC: 0.108 | area with substrate ENLYFQD: 0.0606 | area with substrate ENLYFQF: 0.0611 | area with substrate ENLYFQG: 0.0857 | area with substrate ENLYFQH: 0.0984 | area with substrate ENLYFQK: 0.0472 | area with substrate ENLYFQL: 0.0746 | area with substrate ENLYFQM: 0.111 | area with substrate ENLYFQN: 0.0567 | area with substrate ENLYFQR: 0.0584 | area with substrate ENLYFQS: 0.0954 | area with substrate ENLYFQT: 0.0537 | area with substrate ENLYFQV: 0.0565 | area with substrate ENLYFQW: 0.0595

MGESLFKGPRDYNPISSSICHLTNESDGHTTSLYGIGFGPFIITNKHLFRRNNGTLVVQSLHGVFKVKDTTTLQQHLVDGRDMIIIRMPKDFPPFPQKLKFREPQREERICLVTTNFQTKSMSSMVSDTSCTFPSGDGIFWKHWIQTKDGQCGSPLVRTRDGFIVGIHSASNFTNTNNYFTSVPKNFMELLTNQEAQQWVSGWRLNADSVLWGGHKVFMVKPEEPFQPVKEATQL [S158R]
area with substrate ENLYFQA: 0.0399 | area with substrate ENLYFQC: 0.0506 | area with substrate ENLYFQF: 0.0265 | area with substrate ENLYFQG: 0.0515 | area with substrate ENLYFQK: 0.049 | area with substrate ENLYFQL: 0.034 | area with substrate ENLYFQP: 0.0417 | area with substrate ENLYFQR: 0.0533 | area with substrate ENLYFQS: 0.0523 | area with substrate ENLYFQV: 0.0539 | area with substrate ENLYFQW: 0.0646

MGESLFKGPRDYNPISSSICHLTNESDGHTTSLYGIGFGPFIITNKHLFRRNNGTLVVQSLHGVFKVKDTTTLQQHLVDGRDMIIIRMPKDFPPFPQKLKFREPQREERICLVTTNFQTKSMSSMVSDTSCTFPSGDGIFWKHWIQTKDGQCGSPLVSTRDGFIVGIHSASNFTNTNNYFTSVPKNFMEELTNQEAQQWVSGWRLNADSVLWGGHKVFMVKPEEPFQPVKEATQL [L190E]
area with substrate ENLYFQA: 0.0953 | area with substrate ENLYFQC: 0.102 | area with substrate ENLYFQD: 0.0617 | area with substrate ENLYFQF: 0.0777 | area with substrate ENLYFQI: 0.0735 | area with substrate ENLYFQK: 0.0534 | area with substrate ENLYFQL: 0.0575 | area with substrate ENLYFQM: 0.106 | area with substrate ENLYFQN: 0.0808 | area with substrate ENLYFQQ: 0.0554 | area with substrate ENLYFQR: 0.0581 | area with substrate ENLYFQS: 0.0993 | area with substrate ENLYFQT: 0.0658 | area with substrate ENLYFQV: 0.0599 | area with substrate ENLYFQW: 0.0692 | area with substrate ENLYFQY: 0.0773

MGESLFKGPRDYNVISSSICHLTNESDGHTTSLYGIGFGPFIITNKHLFRRNNGTLVVQSLHGVFKVKDTTTLQQHLVDGRDMIIIRMPKDFPPFPQKLKFREPQREERICLVTTNFQTKSMSSMVSDTSCTFPSGDGIFWKHWIQTKDGQCGSPLVSTRDGFIVGIHSASNFTNTNNYFTSVPKNFMELLTNQEAQQWVSGWRLNADSVLWGGHKVFMVKPEEPFQPVKEATQL [P14V]
area with substrate ENLYFQA: 0.089 | area with substrate ENLYFQC: 0.102 | area with substrate ENLYFQD: 0.0939 | area with substrate ENLYFQF: 0.0891 | area with substrate ENLYFQG: 0.0727 | area with substrate ENLYFQH: 0.0473 | area with substrate ENLYFQI: 0.0321 | area with substrate ENLYFQK: 0.0718 | area with substrate ENLYFQL: 0.0557 | area with substrate ENLYFQM: 0.0809 | area with substrate ENLYFQN: 0.0566 | area with substrate ENLYFQS: 0.0897 | area with substrate ENLYFQT: 0.0702 | area with substrate ENLYFQV: 0.0622 | area with substrate ENLYFQW: 0.0589 | area with substrate ENLYFQY: 0.0705

MGESLFKGPRDYNPISSSICHLTNESDGHTTSLYGIGFGPFIITNKHLFRRNNGTLVVQSLHGVFKVKDTTTLQQHLVDGRDSIIIRMPKDFPPFPQKLKFREPQREERICLVTTNFQTKSMSSMVSDTSCTFPSGDGIFWKHWIQTKDGQCGSPLVSTRDGFIVGIHSASNFTNTNNYFTSVPKNFMELLTNQEAQQWVSGWRLNADSVLWGGHKVFMVKPEEPFQPVKEATQL [M83S]
area with substrate ENLYFQA: 0.0827 | area with substrate ENLYFQE: 0.0576 | area with substrate ENLYFQH: 0.0689 | area with substrate ENLYFQI: 0.0436 | area with substrate ENLYFQK: 0.0552 | area with substrate ENLYFQL: 0.05 | area with substrate ENLYFQN: 0.0359 | area with substrate ENLYFQQ: 0.067 | area with substrate ENLYFQR: 0.0528 | area with substrate ENLYFQS: 0.0688 | area with substrate ENLYFQT: 0.0585 | area with substrate ENLYFQW: 0.0545 | area with substrate ENLYFQY: 0.0914

MGESLFKGPRDYNPISSSICHLTNESDGHTTSLYGIGFGPFIITNKHLFRRNNGTLVVQSLHGVFKVKDTTTLQQHLVDGRDMIIIRMPKVFPPFPQKLKFREPQREERICLVTTNFQTKSMSSMVSDTSCTFPSGDGIFWKHWIQTKDGQCGSPLVSTRDGFIVGIHSASNFTNTNNYFTSVPKNFMELLTNQEAQQWVSGWRLNADSVLWGGHKVFMVKPEEPFQPVKEATQL [D91V]
area with substrate ENLYFQA: 0.0888 | area with substrate ENLYFQC: 0.0936 | area with substrate ENLYFQD: 0.0718 | area with substrate ENLYFQE: 0.0174 | area with substrate ENLYFQF: 0.0584 | area with substrate ENLYFQG: 0.0655 | area with substrate ENLYFQI: 0.0524 | area with substrate ENLYFQK: 0.048 | area with substrate ENLYFQL: 0.0417 | area with substrate ENLYFQQ: 0.0585 | area with substrate ENLYFQR: 0.0679 | area with substrate ENLYFQS: 0.0954 | area with substrate ENLYFQT: 0.0519 | area with substrate ENLYFQV: 0.0604 | area with substrate ENLYFQW: 0.0476

MGESLFKGPRDYNPISSSICHLTNESDGHTTSLYGIGFGPFIITNKHLFRRNNGTLVVQSLHGVFKVKDTTTLQQHLVDGRDMIIIRMPKDFPPFPQKLKFREPQREERICLVTTNFQTKSMSSMVSDTSCTFPSGDGIFWKHWIQTKDGQCGSPLVSTRDGFIVGIHSASNFTNTNNYATSVPKNFMELLTNQEAQQWVSGWRLNADSVLWGGHKVFMVKPEEPFQPVKEATQL [F180A]
area with substrate ENLYFQA: 0.0827 | area with substrate ENLYFQC: 0.136 | area with substrate ENLYFQD: 0.0701 | area with substrate ENLYFQE: 0.0532 | area with substrate ENLYFQF: 0.07 | area with substrate ENLYFQI: 0.0536 | area with substrate ENLYFQN: 0.0429 | area with substrate ENLYFQQ: 0.061 | area with substrate ENLYFQR: 0.0516 | area with substrate ENLYFQS: 0.0797 | area with substrate ENLYFQT: 0.0562 | area with substrate ENLYFQY: 0.0641

— the supplement of paper PMC12217912
